Measured values reported in the supplement of paper PMC3334620.
Over roughly 33,000 sequences, “E-score (-0.5 to 0.5)” has its median near -0.036; the highest 2% begin near 0.37. This is one part of the list.

What follows are sequences tested against T1, Yer064c (UniProt P40041) (assay: PBM E-score (8-mer binding enrichment) (E-score (-0.5 to 0.5)); higher = stronger / more preferred TF binding; most listed sequences are background and not binding sites). Conditions: protein concentration: 200 nM; construct: GST-full length.
T1 sequence: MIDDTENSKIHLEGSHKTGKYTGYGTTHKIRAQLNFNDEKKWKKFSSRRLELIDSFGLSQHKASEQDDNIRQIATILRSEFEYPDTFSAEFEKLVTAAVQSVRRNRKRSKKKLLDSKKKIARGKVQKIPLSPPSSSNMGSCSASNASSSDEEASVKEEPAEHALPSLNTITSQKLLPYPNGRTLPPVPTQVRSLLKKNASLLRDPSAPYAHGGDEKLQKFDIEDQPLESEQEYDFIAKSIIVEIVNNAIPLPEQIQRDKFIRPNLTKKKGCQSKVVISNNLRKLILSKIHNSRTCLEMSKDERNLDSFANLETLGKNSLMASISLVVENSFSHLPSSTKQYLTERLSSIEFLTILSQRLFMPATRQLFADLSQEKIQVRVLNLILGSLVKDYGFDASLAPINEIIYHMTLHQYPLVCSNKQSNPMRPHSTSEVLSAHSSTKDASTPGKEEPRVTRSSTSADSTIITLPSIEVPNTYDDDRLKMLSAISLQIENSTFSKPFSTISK
In short: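 Detection of bound protein used fluorescent anti-GST, with scans normalised by masliner. The proteins were GST-tagged yeast transcription factors applied at about 100-200 nM to universal all-10-mer Agilent arrays made double-stranded by primer extension. Each ungapped eight-base word, pooled with its reverse complement, was scored with an E-score from the Universal PBM Analysis Suite.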

| Sequence | PBM E-score |
| --- | --- |
| CGAGTATC | -0.0827 |
| AAAAAGTA | 0.174 |
| CCCTTTAC | -0.137 |
| AACAGTAA | 0.034 |
| AATCTGCG | -0.101 |
| ACTAGAGT | 0.188 |
| ACAGCTCT | -0.224 |
| CTCTAGAG | -0.0437 |
| ACTGTTAA | 0.173 |
| AATGGATA | 0.0647 |
| CAACGATG | 0.128 |
| GATGACAC | 0.0978 |
| ACGCCCGC | -0.411 |
| AACTTTCG | -0.134 |
| GTTCAGCA | 0.0631 |
| CATCGTCA | 0.0555 |
| GTGGGCCA | -0.0911 |
| AGGAAAAG | -0.0349 |
| CCCTCTGA | 0.0818 |
| GTCTGTCA | -0.107 |
| ATCGAGGC | -0.301 |
| AAAGGAGT | 0.118 |
| ACCTGGTG | -0.0925 |
| GATGTACA | -0.118 |
| GACTGAAC | 0.275 |

| Sequence | PBM E-score |
| --- | --- |
| CGTCAGGA | -0.0376 |
| AATCGCGG | 0.109 |
| GGTCCAAC | -0.0443 |
| CACCTGCC | -0.23 |
| ACAGAATC | 0.15 |
| AGATGTAT | -0.00575 |
| TATATTAA | 0.172 |
| ACTGCGAC | 0.228 |
| ACCGCTAG | -0.171 |
| AAACGAGG | -0.0986 |
| CTAGGTAA | 0.156 |
| TAACTCGA | 0.148 |
| AACTTGTC | -0.185 |
| CAGTAGCG | 0.0182 |
| ACACGTGA | 0.0831 |
| ACGCATTG | -0.0677 |
| CGCCAGAG | -0.0733 |
| CTGCAAAA | 0.0755 |
| AACGCGAT | -0.145 |
| ATTAGAAT | 0.186 |
| ATTACAGC | 0.0956 |
| CAGAACCA | 0.075 |
| CCGAGATC | -0.105 |
| AAAAGATG | 0.0899 |
| GATCGTAA | -0.068 |

| Sequence | PBM E-score |
| --- | --- |
| CAAGGTTC | -0.146 |
| CCCAACTC | -0.00233 |
| AAAACCTT | -0.11 |
| GACAAGAA | -0.0678 |
| CATGGGCC | 0.0402 |
| GACGTCGC | -0.202 |
| TACCAGTA | -0.0512 |
| ATATCGGC | -0.169 |
| CTATCCTC | -0.14 |
| GGAAGTAC | -0.137 |
| GTGCTGAA | -0.0395 |
| ACCGACGA | 0.0503 |
| GTCCCGAC | 0.0408 |
| CATTAGGA | 0.0671 |
| GAAGACTC | 0.446 |
| TATTAAAA | 0.0723 |
| GGGTGGAA | -0.269 |
| GGTCGTAC | -0.205 |
| ACCGCGGT | -0.121 |
| AGGTAGAT | -0.103 |
| ATATATCC | -0.0359 |
| CCCTTCCG | -0.203 |
| CAAGCCCC | -0.158 |
| GAGCGGCA | -0.171 |
| AACCCAAA | -0.0254 |

| Sequence | PBM E-score |
| --- | --- |
| ACTAGCTG | -0.00067 |
| ATATAAAT | 0.0663 |
| CAGTGACA | -0.162 |
| AGTTAGCG | -0.0192 |
| CCCGCGAC | 0.1 |
| CACTTAGA | 0.0684 |
| CGTTACAA | -0.016 |
| GTAACAGA | 0.00394 |
| GGAACGCA | -0.371 |
| GGACTCAA | 0.409 |
| ATAACGAG | -0.0867 |
| ATTTATCA | 0.0846 |
| AGGCCCGA | -0.332 |
| TGATTGAA | 0.333 |
| CTCGTAAA | 0.0978 |
| CATGTTTC | 0.0994 |
| ACGAAAGA | 0.0469 |
| ATGACGCG | -0.0232 |
| CTCACTTA | 0.295 |
| AACTGTCC | -0.271 |
| CACGTGGA | 0.0649 |
| CGCCCTAG | -0.0199 |
| TCGCTTAA | 0.0623 |
| TTGAACAA | -0.106 |
| AAAGTGTA | -0.0572 |

| Sequence | PBM E-score |
| --- | --- |
| AGACCGTA | -0.11 |
| CAAGGATC | -0.0273 |
| CCCGGCAG | -0.181 |
| GACCTCGA | 0.0249 |
| ACCTAACG | -0.232 |
| ATCCGTGA | 0.0129 |
| ATCTAAGG | -0.0303 |
| ATGCGTGG | -0.0922 |
| ACTAGATC | 0.0321 |
| GAGCCAGC | 0.046 |
| GTGTTCAA | 0.0916 |
| CGAATAAC | -0.0556 |
| ACCGAGGT | -0.102 |
| CCCCCGAC | -0.188 |
| CCTCACCG | -0.033 |
| CGAAGTTA | 0.0023 |
| CTCTCTTA | 0.0697 |
| AAAGCGGC | -0.0342 |
| AGTGCTCA | 0.00363 |
| ACTTTAAA | 0.164 |
| AGACGTGG | -0.13 |
| CGATTATA | 0.167 |
| CAAGCTCA | -0.0628 |
| AGCGGTGG | -0.295 |
| AAGTCCTC | 0.188 |

| Sequence | PBM E-score |
| --- | --- |
| AATCCTGT | 0.0773 |
| GAATTCGA | 0.0614 |
| CTTATGAC | 0.262 |
| GCTGAGAA | -0.047 |
| AGCATGTA | -0.0955 |
| CGTTATTC | 0.101 |
| CCATGCAC | -0.105 |
| GGGGACCA | -0.112 |
| AGTGTTCC | 0.0512 |
| GGTATACC | -0.0355 |
| CACCGAGC | 0.0709 |
| ACTTTTCC | 0.185 |
| TGTTGCAA | 0.0182 |
| ATAGAGAG | -0.171 |
| TATGAGCA | 0.0232 |
| AGTCACGA | 0.466 |
| CTCTCACA | -0.0505 |
| CCGGAGGC | -0.154 |
| CGTTACTA | 0.0517 |
| AAGCGCTC | -0.294 |
| CTGTGAGA | 0.166 |
| GTGTGCCA | -0.226 |
| AAGTCAAT | 0.305 |
| ATTATCCG | -0.0102 |
| ATTCCTAC | 0.127 |

| Sequence | PBM E-score |
| --- | --- |
| AGCGCTAT | -0.141 |
| AAGACCGA | -0.15 |
| GCAGTTCA | -0.0587 |
| CGTTCTGA | -0.00219 |
| CCGGGTTA | -0.141 |
| CAGGTTTC | 0.109 |
| AGAACTCG | -0.0243 |
| ACATACCA | -0.0959 |
| CTCATTCC | 0.17 |
| GGTCGGGA | -0.115 |
| ACGTAACT | -0.119 |
| CCGGATCG | -0.173 |
| AACGTTAT | -0.201 |
| ATTGCGGG | -0.102 |
| GATGACGC | -0.197 |
| AGTATTTG | 0.0413 |
| AGAGCAAC | -0.198 |
| GAAAGACA | -0.0825 |
| CGCATGGC | -0.0395 |
| CGGCAATC | 0.0483 |
| TAGTAACA | 0.147 |
| AAATTGTA | 0.165 |
